Assay results as given in publication PMC11034981.
Results are given in words; binding and its absence hold for the method and conditions named. Binding seen in cells or lysates may run through a third protein. Some binding calls cover weakened binding; strength is not graded here.

Protein sequences, listed by entry. Tags and fused reporters are not part of them. Lines headed by an entry give the natural chain unless they say otherwise; changes in a name come on top. Chains listed by the source or under a name are the forms on record and can include a tag or linker.
Orb2A (Q9VSR3, form named): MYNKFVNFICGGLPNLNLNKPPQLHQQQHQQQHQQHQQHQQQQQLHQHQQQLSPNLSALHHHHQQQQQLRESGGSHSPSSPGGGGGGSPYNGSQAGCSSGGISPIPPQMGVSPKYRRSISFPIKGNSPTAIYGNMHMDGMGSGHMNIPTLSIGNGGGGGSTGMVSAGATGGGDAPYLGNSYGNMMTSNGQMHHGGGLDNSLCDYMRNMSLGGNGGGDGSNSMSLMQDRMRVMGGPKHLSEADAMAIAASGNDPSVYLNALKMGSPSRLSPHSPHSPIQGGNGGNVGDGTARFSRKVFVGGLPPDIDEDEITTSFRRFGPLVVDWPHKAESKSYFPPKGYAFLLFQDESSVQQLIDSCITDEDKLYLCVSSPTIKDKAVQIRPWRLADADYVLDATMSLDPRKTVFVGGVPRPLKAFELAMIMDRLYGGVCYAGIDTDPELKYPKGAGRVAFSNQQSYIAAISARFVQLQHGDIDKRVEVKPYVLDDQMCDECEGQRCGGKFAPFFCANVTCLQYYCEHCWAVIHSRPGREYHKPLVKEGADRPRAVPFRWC
UniProt Q24133: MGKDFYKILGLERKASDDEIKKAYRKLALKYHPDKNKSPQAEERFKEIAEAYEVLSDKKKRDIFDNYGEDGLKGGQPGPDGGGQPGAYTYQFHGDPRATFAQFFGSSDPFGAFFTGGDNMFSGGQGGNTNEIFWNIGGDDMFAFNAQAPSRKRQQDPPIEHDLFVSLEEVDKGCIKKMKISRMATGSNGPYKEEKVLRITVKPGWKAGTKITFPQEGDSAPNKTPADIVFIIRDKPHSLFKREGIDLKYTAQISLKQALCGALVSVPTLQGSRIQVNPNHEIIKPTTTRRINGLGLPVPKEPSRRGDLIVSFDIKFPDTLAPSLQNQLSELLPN
UniProt Q9VTJ8: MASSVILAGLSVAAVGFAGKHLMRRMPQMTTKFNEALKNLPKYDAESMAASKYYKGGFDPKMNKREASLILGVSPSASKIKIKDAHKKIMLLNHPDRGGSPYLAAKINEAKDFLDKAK
UniProt P11147: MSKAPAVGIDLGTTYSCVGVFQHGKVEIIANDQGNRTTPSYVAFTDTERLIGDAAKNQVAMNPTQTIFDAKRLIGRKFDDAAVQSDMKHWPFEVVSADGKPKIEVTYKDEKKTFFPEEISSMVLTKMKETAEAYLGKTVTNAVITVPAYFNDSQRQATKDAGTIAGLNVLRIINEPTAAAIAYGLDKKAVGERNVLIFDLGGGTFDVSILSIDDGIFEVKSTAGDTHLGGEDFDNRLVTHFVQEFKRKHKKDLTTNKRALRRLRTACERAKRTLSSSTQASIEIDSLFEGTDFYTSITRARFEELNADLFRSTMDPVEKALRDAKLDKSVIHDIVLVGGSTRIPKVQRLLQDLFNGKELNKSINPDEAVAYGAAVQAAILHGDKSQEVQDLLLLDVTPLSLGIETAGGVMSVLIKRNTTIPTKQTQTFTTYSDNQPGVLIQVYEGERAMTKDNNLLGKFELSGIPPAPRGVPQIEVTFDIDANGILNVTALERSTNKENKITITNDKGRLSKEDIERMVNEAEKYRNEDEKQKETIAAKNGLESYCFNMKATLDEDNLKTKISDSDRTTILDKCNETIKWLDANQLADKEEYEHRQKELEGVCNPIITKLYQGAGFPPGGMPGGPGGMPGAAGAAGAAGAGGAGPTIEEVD
UniProt P82910: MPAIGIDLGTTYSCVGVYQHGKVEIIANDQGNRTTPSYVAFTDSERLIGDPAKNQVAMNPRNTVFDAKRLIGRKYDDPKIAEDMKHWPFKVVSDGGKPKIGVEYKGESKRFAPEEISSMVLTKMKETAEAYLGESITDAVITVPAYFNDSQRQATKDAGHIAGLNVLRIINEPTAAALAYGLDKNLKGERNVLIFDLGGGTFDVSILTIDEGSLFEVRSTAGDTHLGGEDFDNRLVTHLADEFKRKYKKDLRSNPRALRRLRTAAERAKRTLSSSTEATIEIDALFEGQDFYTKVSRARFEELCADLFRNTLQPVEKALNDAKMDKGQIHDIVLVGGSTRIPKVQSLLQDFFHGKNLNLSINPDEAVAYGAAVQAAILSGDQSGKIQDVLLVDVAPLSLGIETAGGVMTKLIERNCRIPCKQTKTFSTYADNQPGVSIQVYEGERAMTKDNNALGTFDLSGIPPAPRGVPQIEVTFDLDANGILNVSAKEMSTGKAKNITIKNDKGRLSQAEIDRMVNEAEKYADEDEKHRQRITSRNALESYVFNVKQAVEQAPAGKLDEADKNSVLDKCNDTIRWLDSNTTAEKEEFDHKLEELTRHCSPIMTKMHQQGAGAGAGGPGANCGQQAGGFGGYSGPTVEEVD
UniProt O75190: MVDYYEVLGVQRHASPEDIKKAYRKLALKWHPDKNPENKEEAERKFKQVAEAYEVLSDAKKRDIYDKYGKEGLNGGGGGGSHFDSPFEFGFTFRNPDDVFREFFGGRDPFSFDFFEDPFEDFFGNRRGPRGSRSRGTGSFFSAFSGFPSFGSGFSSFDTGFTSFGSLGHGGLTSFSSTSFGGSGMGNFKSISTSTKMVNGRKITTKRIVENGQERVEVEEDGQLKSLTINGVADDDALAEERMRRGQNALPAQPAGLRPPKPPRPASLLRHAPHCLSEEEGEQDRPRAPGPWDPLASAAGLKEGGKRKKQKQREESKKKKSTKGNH

T1: human CPEB2 (human) (UniProt Q7Z5Q1)
T1 sequence: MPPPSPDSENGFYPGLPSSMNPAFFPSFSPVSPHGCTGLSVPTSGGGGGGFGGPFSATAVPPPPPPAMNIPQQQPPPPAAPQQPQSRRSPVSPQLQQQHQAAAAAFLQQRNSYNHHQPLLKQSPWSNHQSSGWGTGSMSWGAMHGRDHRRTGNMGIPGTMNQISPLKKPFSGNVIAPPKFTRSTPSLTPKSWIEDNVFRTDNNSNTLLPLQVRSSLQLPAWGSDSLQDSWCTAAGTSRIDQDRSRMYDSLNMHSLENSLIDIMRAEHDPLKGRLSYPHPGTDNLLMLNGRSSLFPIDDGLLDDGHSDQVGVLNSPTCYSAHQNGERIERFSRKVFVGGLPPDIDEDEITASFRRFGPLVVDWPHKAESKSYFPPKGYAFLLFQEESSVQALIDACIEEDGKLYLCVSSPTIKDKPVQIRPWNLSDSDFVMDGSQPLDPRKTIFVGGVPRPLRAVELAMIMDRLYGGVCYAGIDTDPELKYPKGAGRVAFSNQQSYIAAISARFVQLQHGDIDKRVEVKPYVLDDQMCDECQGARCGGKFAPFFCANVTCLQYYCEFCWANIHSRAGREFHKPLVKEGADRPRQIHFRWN


Assays:
Orb2A (Drosophila) = Orb2A (Drosophila) (UniProt Q9VSR3); assay: co-IP; S2 cells cotransfected with untagged Orb2A (or Orb2B) and an HA-tagged Hsp40 or Flag-tagged Hsp70; lysate (150 mM NaCl, 50 mM Tris, 1% NP40) with anti-Orb2 antibody and Protein-A beads, 4°C; blot with anti-HA or anti-Flag; control IP with beads only
human CPEB2 (human) = biological target: T1, human CPEB2 (human); assay: co-IP; HEK cells with hCPEB2 and hDnaJB6; immunoprecipitation with anti-GFP (GFP-Trap beads), blot with anti-Flag

Row | binding (Orb2A (Drosophila)) | binding (human CPEB2 (human)) | Molecule
1 | no binding |  | DnaJ1-HA (from UniProt Q24133 1-334)
2 | no binding |  | CG7394 (from UniProt Q9VTJ8 1-118)
3 | binds |  | Hsc70-4 (from UniProt P11147 1-651)
4 | no binding |  | CG7872 (protein, UniProt Q9VXT2 1-333) MRTHGLRLVLLALLPTMALGLLEGLYCGKENCYDVLGVTRESSKSEIGKAYRQLARRYHPDLHRGAEAKAAAETQFKLVATAYEILRDEESRTDYDYMLDNPDAYYAHYYRYYRRRVAPKVDVRVVIVVVLTIVSVIQYYSGWQRYDSAIKYFATVPKYRNQALEIARDEIQEKIQKKGKNRMSKNDQRDELERIIRRVIEEKMDVKGGYAKPTLWDVLWVQLIICPYTILSFIVWHAQWFWRYTVMKQPYGREQKLYLIRRHLGMGQHQFEAQEDKLIEEYLHLKLWKRENFVAWKAEQEEEMKKKLAENPRYKAYRRYMKNHGPGRITFED
5 | no binding |  | L(2)tid (protein, UniProt Q27237 63-520) AKDYYATLGVAKNANGKDIKKAYYQLAKKYHPDTNKEDPDAGRKFQEVSEAYEVLSDEQKRREYDTYGQTAENIGRQGGGFPGGGAGGFGPEGFSQSWQFRSSIDPEELFRKIFGEGNFRTNSFDDFADSKFGFGQAQEMVMDLTFAQAARGVNKDVNVNVVDQCPKCAGTKCEPGTKPGRCQYCNGTGFETVSTGPFVMRSTCRYCQGTRQHIKYPCSECEGKGRTVQRRKVTVPVPAGIENGQTVRMQVGSKELFVTFRVERSDYFRREGADVHTDAAISLAQAVLGGTVRVQGVYEDQWINVEPGTSSHHKIMLRGKGLKRVNAHGHGDHYVHVKITVPSAKKLDKKRLALIEAYAELEEDTPGQIHGIANRKDGSKQATAGASEEPGAGAAAKASAAAAGSGASKPGPGAEKSEGKDQWTDNEKTKAKEGGGSGSGQGDGGGGGFISKIKSMFN

Further lines, the molecule ahead of its results:

Row | Molecule | binding (Orb2A (Drosophila)) | binding (human CPEB2 (human))
6 | Hsp70Aa (from UniProt P82910 1-642) | binds | 
7 | human DnaJB6 (from UniProt O75190 1-326) |  | binds
8 | CG4164 (protein, UniProt Q9VPQ2 23-354) GRDFYKILNVKKNANTNEVKKAYRRLAKELHPDKNKDDPDASTKFQDLGAAYEVLSNPDKRKTYDRCGEECLKKEGMMDHGGDPFSSFFGDFGFHFGGDGQQQDAPRGADIVMDLYVSLEELYSGNFVEIVRNKPVTKPASGTRKCNCRQEMVTRNLGPGRFQMIQQTVCDECPNVKLVNEERTLEIEVEQGMVDGQETRFVAEGEPHIDGEPGDLIVRVQQMPHPRFLRKNDDLYTNVTISLQDALVGFSMEIKHLDGHLVPVTREKVTWPGARIRKKGEGMPNFENNNLTGNLYITFDVEFPKKDLTEEDKEALKKILDQSSINRIYNGL | binds | 
9 | CSP (protein, UniProt Q03751 1-249) MSAPGMDKRKLSTSGDSLYEILGLPKTATGDDIKKTYRKLALKYHPDKNPDNVDAADKFKEVNRAHSILSDQTKRNIYDNYGSLGLYIAEQFGEENVNAYFVVTSPAVKAVVICCAVITGCCCCCCCCCCCNFCCGKFKPPVNESHDQYSHLNRPDGNREGNDMPTHLGQPPRLEDVDLDDVNLGAGGAPVTSQPREQAGGQPVFAMPPPSGAVGVNPFTGAPVAANENTSLNTTEQTTYTPDMVNQKY | no binding | 
10 | DnaJ60 (protein, UniProt P92029 1-217) MLRLCLPTRAGYVRNFSNDKPRKPETHYEVLNIRNDCSTREVRNAFVQLSKLYHPDVKSNAACPERTARFVQISEAYKTLIKPERRRDYDDSLLWQPSRSDRSPVGETVNPGQAWDVRPNYDPNPGPYYGIRGLKRVSNWQVAVVLMALGFVGALFGFTSVRSSFKLSRQIQDEISAEANSHHAAVVADAQKYGNEEQVRRMVDRMSRSPFNQSSAK | no binding | 
11 | Jdp (protein, UniProt Q9TVP3 1-195) MSAVDAIINYKRSPNEDFYGLLHCDENSSPEQIQAEYKVLALQYHPDKNSGDKEAEAKFQQLKEAKETLCDPEKRAIYDKWRNSGISMSYKQWLGMKEHVGQVRRYTIAEKVDKESMHWVTPKTKDRMLPETGGAAAQGPGTGAGCSSGGLTAASPNPAHRRASEGGAALYYGSRKGEWGGENTDVANKFRNYEI | no binding | 
12 | CG6693 (protein, UniProt Q9VGR7 1-299) MSTLELCEKYFGTRDVYKLMELARGAGEKEVKKAYHKLSLLVHPDRVPEEQKAESTEKFKVLSKLYQVLTDTQKRALYDEQGVIDDDDESESKLSSWLELWSKIFKPITEEDINNYEKEYVESELERTDLKKAYLGGKGCINYLMNHVPFMKVEDEPRIQKIVQDMIASGEVPEYKIFTEEPAAKRKKRHQKYAREFKEAKVIKERLKRRQKEKDDQDLADNGGDLQQMILARRNQRESNFGSLMDRLMEKYGNEDDSDTVDFSAFEKKKKKSKKPAAKQETKPKLNGVKAGRVEKGKN | no binding | 
